# Assay results published in the supplement of paper PMC9446081.
# The whole screen tested about 39,000 compounds, of which about 220 (0.56%) showed activity. The list shows a part of the results.
# System: Escherichia coli K-12 BW25113
# Assay: relative growth (OD600 normalised to plate interquartile mean) (fraction); higher = less growth inhibition, active = 0.2 or less
# Details: 50 µM; LB; incubation time: overnight (16-24 h)
# 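Also: static incubation at 37 °C against the wild-type strain, values averaged over two biological replicates.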
row,SMILES,relative growth
1,O=C(C[C@H]1C[C@H]2c3cc(NC(=O)c4ccc5c(c4)OCO5)ccc3O[C@H]2[C@@H](CO)O1)NCc1ccccn1,inactive: 1.02
2,C[C@H](C(=O)O)c1ccc(C2CCCCC2)c2ccccc12,inactive: 0.98
3,COc1cccc(CNC(=O)c2cc3c(c(-c4cccc(-c5ccc(C#N)cc5)c4)n2)[C@@H](CCO)N([S@](=O)C(C)(C)C)C3)c1,inactive: 0.974
4,C[C@@H]1CN([C@H](C)CO)C(=O)c2cccc(NC(=O)Nc3ccccc3)c2O[C@@H]1CN(C)C(=O)Nc1cccc2ccccc12,inactive: 1.01
5,C=CC1=C(C)c2cc3[nH]c(cc4nc(cc5[nH]c(cc1n2)c(C)c5CCC(=O)O)C(CCC(=O)O)=C4C)c(C)c3C=C,inactive: 1.04
6,CCN1OCN(c2nc(N(C)C)nc(N(C)C)n2)C1=N,inactive: 0.95
7,C=C(C)Cn1c(N2CCN(CCO)CC2)nc2c1c(=O)n(C)c(=O)n2C,inactive: 0.985
8,Cc1noc(C)c1NC(=O)N(C)C[C@@H]1OCCCC[C@H](C)Oc2ccc(NC(=O)Cc3ccccc3)cc2C(=O)N([C@H](C)CO)C[C@H]1C,inactive: 0.998
9,CC(=O)NCC(=O)N1CCC2(CC1)CN(c1cnn(C)c1)C(=O)CO2,inactive: 1.01
10,C[C@@H]1CN([C@H](C)CO)C(=O)c2cc(NC(=O)CCN3CCOCC3)ccc2O[C@H]1CN(C)S(=O)(=O)c1cn(C)cn1,inactive: 1.04
11,C[C@@H]1CN([C@H](C)CO)C(=O)c2cc(NC(=O)Nc3cccc4ccccc34)ccc2O[C@@H](C)CCCCO[C@H]1CN(C)C(=O)NC1CCCCC1,inactive: 1.02
12,CC(C=CC1=C(C)CCCC1(C)C)=CC=CC(C)=CC(=O)O,inactive: 0.95
13,C[C@H](CO)N1C[C@H](C)[C@H](CN(C)S(C)(=O)=O)OCCCC[C@H](C)Oc2ccc(NC(=O)c3ccncc3)cc2C1=O,inactive: 1.01
14,Cn1nnc(NCc2ccccc2)n1,inactive: 0.994
15,C[C@@H]1CN([C@@H](C)CO)C(=O)c2cccc(NS(C)(=O)=O)c2O[C@H]1CN(C)Cc1ccc(C(=O)Nc2ccccc2N)cc1,inactive: 0.992
16,CC=NN(C)C=O,inactive: 1.05
17,CC(C)NC(=O)N(C)C[C@H]1Oc2cc(C#Cc3ccc(F)cc3)ccc2S(=O)(=O)N([C@@H](C)CO)C[C@H]1C,inactive: 1.02
18,C[C@@H]1CN([C@H](C)CO)C(=O)c2cc(NC(=O)Nc3ccc(C(F)(F)F)cc3)ccc2O[C@H]1CN(C)S(C)(=O)=O,inactive: 0.968
19,C[C@@H]1CN([C@H](C)CO)C(=O)CCCn2nncc2CO[C@@H]1CN(C)S(=O)(=O)c1ccc(C#N)cc1,inactive: 1.01
20,COC[C@H]1CN(C)N=C(C2CC2)O1,inactive: 1.01
21,C[C@H]1CCCCO[C@@H](CN(C)C(=O)NC2CCCCC2)[C@@H](C)CN([C@@H](C)CO)C(=O)c2cc(NC(=O)CCC(F)(F)F)ccc2O1,inactive: 0.99

row,SMILES,relative growth
1,COc1ccc(S(=O)(=O)N(C)C[C@@H]2Oc3ncc(-c4ccncc4)cc3C(=O)N([C@@H](C)CO)C[C@@H]2C)cc1,inactive: 1.01
2,CN(C)C(=O)N1CC2(CCN(S(=O)(=O)N(C)C)CC2)[C@]2(CCN(C)C2=O)C1,inactive: 0.997
3,O=C(C[C@H]1C[C@H]2c3cc(NC(=O)c4cccnc4)ccc3O[C@H]2[C@@H](CO)O1)NCc1cc(F)ccc1F,inactive: 1
4,CCCNC(=O)[C@@]1(Sc2ccc(C)cc2)CC(=O)N(Cc2ccccc2C(F)(F)F)[C@@H]1c1ccc(CO)cc1I,inactive: 0.99
5,C[C@H]1O[C@@H](O[C@H]2[C@@H](O)C[C@H](O[C@H]3[C@@H](O)C[C@H](O[C@H]4CC[C@@]5(C)[C@H](CC[C@@H]6[C@@H]5CC[C@]5(C)[C@@H](C7=CC(=O)OC7)CC[C@]65O)C4)O[C@@H]3C)O[C@@H]2C)C[C@H](O)[C@@H]1O,inactive: 0.997
6,C[C@H]1CN([C@@H](C)CO)C(=O)c2cc(NC(=O)CCN3CCOCC3)ccc2O[C@@H]1CN(C)S(=O)(=O)c1cccs1,inactive: 0.975
7,CCOC(=O)CSc1nnc2c3sc4nc(N5CCOCC5)c5c(c4c3ncn12)CC(C)(C)OC5,inactive: 1.01
8,CC(C)(C)[S@@](=O)N1Cc2cc(C(=O)NCc3ccc4c(c3)OCO4)nc(-c3cccc(-c4cccnc4)c3)c2[C@H]1CCO,inactive: 1.02
9,Cn1c(=O)[nH]c(=O)c2c1ncn2CCN1CCOCC1,inactive: 0.985
10,C[C@H](CO)N1C[C@H](C)[C@H](CN(C)C(=O)Nc2ccccc2C(F)(F)F)OCc2ccccc2-c2c(n(C)c3ccccc23)C1=O,inactive: 1.04
11,COc1ccc(CN(C)C[C@H]2Oc3ccc(NC(=O)C4CC4)cc3CC(=O)N([C@H](C)CO)C[C@H]2C)cc1,inactive: 0.991
12,C[C@H](CO)N1C[C@H](C)[C@H](CN(C)Cc2ccncc2)Oc2ccc(NS(=O)(=O)c3ccc(F)cc3)cc2CC1=O,inactive: 1.02
13,Cc1noc(C)c1NC(=O)Nc1ccc2c(c1)C(=O)N([C@@H](C)CO)C[C@H](C)[C@@H](CN(C)C(=O)Nc1c(C)noc1C)OCCCC[C@H](C)O2,inactive: 0.997
14,C[C@@H]1CN([C@H](C)CO)C(=O)c2cc(NC(=O)CCCN(C)C)ccc2O[C@@H](C)CCCCO[C@@H]1CN(C)Cc1ccc(C(F)(F)F)cc1,inactive: 0.931
15,CC(=O)/C(C)=N/O,inactive: 1.01
16,CN(C)CC#Cc1ccc([C@H]2[C@@H](CO)N3C(=O)CN(C(=O)c4cccnc4)C[C@@H]23)cc1,inactive: 0.991
17,C[C@@H]1CN([C@H](C)CO)C(=O)c2cc(NC(=O)CCCCCC(=O)Nc3ccccc3N)ccc2O[C@@H]1CN(C)C(=O)Nc1ccc(F)cc1,inactive: 0.967
18,C[C@@H]1CN([C@@H](C)CO)C(=O)c2cccc(NS(=O)(=O)c3cn(C)cn3)c2O[C@@H]1CN(C)C(=O)Nc1ccc2c(c1)OCO2,inactive: 0.987
19,C[C@H](NC(=O)N(C)C[C@@H]1OCc2ccccc2-c2ccccc2C(=O)N([C@@H](C)CO)C[C@@H]1C)c1ccccc1,inactive: 0.987
20,C[C@@H]1CN([C@@H](C)CO)C(=O)c2c(c3ccccc3n2C)-c2ccccc2CO[C@@H]1CN(C)Cc1ccc(Oc2ccccc2)cc1,inactive: 1.01
21,COc1ccc(C#Cc2cnc3c(c2)C(=O)N([C@@H](C)CO)C[C@@H](C)[C@H](CN(C)C(=O)CN(C)C)O3)cc1,inactive: 0.994

row,SMILES,relative growth
1,C[C@H](CO)N1C[C@H](C)[C@H](CN(C)CC2CCCCC2)OCCCC[C@H](C)Oc2ccc(NC(=O)Nc3ccc(C(F)(F)F)cc3)cc2C1=O,inactive: 0.945
2,Cc1ccc(S(=O)(=O)Nc2cccc3c2O[C@H](CN(C)S(C)(=O)=O)[C@@H](C)CN([C@H](C)CO)C3=O)cc1,inactive: 0.981
3,C[C@@H]1CN([C@@H](C)CO)C(=O)c2cc(NC(=O)C3CCCCC3)ccc2O[C@@H](C)CCCCO[C@@H]1CN(C)S(=O)(=O)c1ccccc1,inactive: 1.03
4,C[C@@H]1CCCCO[C@@H](CN(C)C)[C@@H](C)CN([C@H](C)CO)C(=O)c2cc(NC(=O)CCCN(C)C)ccc2O1,inactive: 0.997
5,COc1ccc(CN(C)C[C@@H]2Oc3c(NC(=O)c4cnccn4)cccc3C(=O)N([C@H](C)CO)C[C@H]2C)cc1,inactive: 1.03
6,C[C@@H]1CN([C@H](C)CO)C(=O)c2cccc(NC(=O)c3nc4ccccc4s3)c2O[C@H]1CN(C)C(=O)Nc1ccc(F)cc1,inactive: 1.02
7,C[C@@H]1CN([C@@H](C)CO)C(=O)c2cc(NS(=O)(=O)c3cccs3)ccc2O[C@@H](C)CCCCO[C@H]1CN(C)S(=O)(=O)c1cn(C)cn1,inactive: 1.02
8,C[C@@H]1CN([C@H](C)CO)C(=O)c2cccc(NS(C)(=O)=O)c2O[C@@H]1CN(C)C(=O)Nc1ccc(C(F)(F)F)cc1,inactive: 1.03
9,CC(C)(C)[S@](=O)N1Cc2cc(C(=O)NCC(F)(F)F)nc(-c3cccc(-c4cccc(F)c4)c3)c2[C@@H]1CCO,inactive: 0.975
10,CN1CCN(C(=O)C[C@H]2CC[C@H]3[C@H](COc4ccc(NC(=O)c5cccs5)cc4C(=O)N3C)O2)CC1,inactive: 1.02
11,COc1ccc(NC(=O)Nc2ccc3c(c2)C(=O)N([C@@H](C)CO)C[C@@H](C)[C@H](CN(C)C(=O)NC(C)C)OCCCC[C@H](C)O3)cc1,inactive: 0.996
12,C[C@H]1CN([C@@H](C)CO)C(=O)c2cc(C#Cc3ccc(F)cc3)cnc2O[C@H]1CN(C)Cc1ccccn1,inactive: 1.01
13,Nc1ccn(C2OC(CO)C(O)C2O)c(=O)n1 (stereo unspecified),inactive: 0.903
14,C[C@H](CO)N1C[C@H](C)[C@H](CN(C)CC2CCCCC2)Oc2c(NC(=O)c3cnccn3)cccc2C1=O,inactive: 1
15,C[C@@H]1CCCCO[C@H](CN(C)C(=O)NC2CCCCC2)[C@@H](C)CN([C@H](C)CO)C(=O)c2cc(NC(=O)NC3CCCCC3)ccc2O1,inactive: 0.994
16,COc1ccc(NC(=O)N(C)C[C@@H]2OCCCC[C@H](C)Oc3ccc(NC(=O)Nc4cccc5ccccc45)cc3C(=O)N([C@@H](C)CO)C[C@H]2C)cc1,inactive: 1.03
17,C[C@@H]1CN([C@H](C)CO)C(=O)c2cc(NC(=O)CCC(F)(F)F)ccc2O[C@@H](C)CCCCO[C@H]1CN(C)S(=O)(=O)c1ccc(F)cc1,inactive: 1.04
18,C[C@H](CO)N1C[C@H](C)[C@H](CN(C)C(=O)Nc2ccc(C(F)(F)F)cc2)OCCCC[C@H](C)Oc2ccc(NC(=O)c3ccccc3)cc2C1=O,inactive: 0.991
19,O=C1N(Cc2ccccc2)Cc2ccccc2C[C@]12N=C(c1ccc(OCCCO)cc1)O[C@@H]2c1ccccc1,inactive: 1.02
